The results in this text go back to publication PMC3102714, “OsSpo11-4, a Rice Homologue of the Archaeal TopVIA Protein, Mediates Double-Strand DNA Cleavage and Interacts with OsTopVIB” (PLoS ONE, 2011).

Assay [1] addresses T1, OsTopVIB (yeast two-hybrid fusion) (Oryza sativa L. ssp. japonica) (UniProt Q6H442).
T1 sequence: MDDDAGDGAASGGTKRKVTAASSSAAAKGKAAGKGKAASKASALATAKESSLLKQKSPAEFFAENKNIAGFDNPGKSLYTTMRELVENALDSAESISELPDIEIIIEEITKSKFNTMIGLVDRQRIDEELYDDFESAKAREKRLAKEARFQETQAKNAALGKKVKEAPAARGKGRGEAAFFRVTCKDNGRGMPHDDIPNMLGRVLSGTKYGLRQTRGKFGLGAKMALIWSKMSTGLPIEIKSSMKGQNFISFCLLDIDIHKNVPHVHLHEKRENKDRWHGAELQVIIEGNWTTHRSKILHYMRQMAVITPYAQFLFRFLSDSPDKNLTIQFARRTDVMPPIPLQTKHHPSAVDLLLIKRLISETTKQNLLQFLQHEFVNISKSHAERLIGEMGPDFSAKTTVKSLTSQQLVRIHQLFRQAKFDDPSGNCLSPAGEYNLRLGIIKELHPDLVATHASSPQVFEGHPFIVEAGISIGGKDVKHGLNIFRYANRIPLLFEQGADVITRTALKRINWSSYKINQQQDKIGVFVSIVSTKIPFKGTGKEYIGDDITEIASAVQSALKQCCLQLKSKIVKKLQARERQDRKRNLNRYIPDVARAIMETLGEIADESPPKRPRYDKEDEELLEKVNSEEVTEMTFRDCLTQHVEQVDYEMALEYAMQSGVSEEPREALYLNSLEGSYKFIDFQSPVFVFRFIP
Nature of the assay: two-hybrid; … GAL4 Two-hybrid System 3; AD (pGADT7) and BD (pGBKT7) fusions co-transformed into yeast AH109; growth on QDO medium, then colony-lift filter assay with X-gal staining for 7 h.

Assay [2] deals with OsSpo11-4 (yeast two-hybrid fusion) (Oryza sativa L. ssp. japonica) (UniProt Q2QM00). Described as above.
The target of assay [3] is T2, GST-OsTopVIB fusion protein (Oryza sativa L. ssp. japonica, UniProt Q6H442 1-696).
T2 construct: OsTopVIB, Oryza sativa L. ssp. japonica; ORF amplified with primers P17 and P18, cloned BamHI/BglII into pESP-2; fusion about 103 kD; also called OsTopVIB-GST fusion; GST-TopVIB
T2 sequence (looked up): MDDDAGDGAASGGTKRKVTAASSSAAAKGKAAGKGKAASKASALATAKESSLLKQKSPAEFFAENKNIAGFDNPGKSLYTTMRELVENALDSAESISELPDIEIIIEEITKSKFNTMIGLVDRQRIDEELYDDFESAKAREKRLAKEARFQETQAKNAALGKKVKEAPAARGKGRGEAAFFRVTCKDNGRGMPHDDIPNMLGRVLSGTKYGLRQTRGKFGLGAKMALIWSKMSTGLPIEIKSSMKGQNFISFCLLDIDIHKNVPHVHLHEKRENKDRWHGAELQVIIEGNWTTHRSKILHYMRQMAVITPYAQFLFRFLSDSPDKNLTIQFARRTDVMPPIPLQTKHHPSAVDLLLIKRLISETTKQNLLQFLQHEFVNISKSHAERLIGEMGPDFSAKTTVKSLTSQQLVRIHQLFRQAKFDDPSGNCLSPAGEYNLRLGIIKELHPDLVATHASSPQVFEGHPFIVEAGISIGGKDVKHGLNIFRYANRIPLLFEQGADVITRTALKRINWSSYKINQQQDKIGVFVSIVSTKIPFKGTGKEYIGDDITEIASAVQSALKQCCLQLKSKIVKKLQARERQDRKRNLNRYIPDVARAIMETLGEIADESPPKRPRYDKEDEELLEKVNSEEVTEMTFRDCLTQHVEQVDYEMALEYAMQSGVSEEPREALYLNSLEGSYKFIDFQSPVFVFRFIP
Nature of the assay: pull-down; GST-OsTopVIB or GST preabsorbed to Glutathione Sepharose 4B resin, incubated with protein extracts of rice flowers at the meiosis stage, 4°C, 6 h; washed with 0.5% NP-40 lysis buffer; western blot with antibody against OsSpo11-4; only the target purified. Background: Immunoblotting shows a protein as a band on a membrane.

Assay [4] addresses OsSpo11-1 (yeast two-hybrid fusion) (Oryza sativa L. ssp. japonica) (UniProt Q7Y021). Kind of assay: two-hybrid; … GAL4 Two-hybrid System 3; AD (pGADT7) and BD (pGBKT7) fusions co-transformed into yeast AH109; growth on QDO medium, then colony-lift filter assay with X-gal staining for 7 h.

No constants are given. Whether binding was seen depends on the method and setting. For part of these data: In cells and extracts the contact can be indirect. Some results given as binding are weak or reduced against the parent protein; the word gives no strength. Sequences can lack the tags named with a protein.

B1: OsTopVIB (yeast two-hybrid fusion) (protein, UniProt Q6H442 1-696)
chain: MDDDAGDGAASGGTKRKVTAASSSAAAKGKAAGKGKAASKASALATAKESSLLKQKSPAEFFAENKNIAGFDNPGKSLYTTMRELVENALDSAESISELPDIEIIIEEITKSKFNTMIGLVDRQRIDEELYDDFESAKAREKRLAKEARFQETQAKNAALGKKVKEAPAARGKGRGEAAFFRVTCKDNGRGMPHDDIPNMLGRVLSGTKYGLRQTRGKFGLGAKMALIWSKMSTGLPIEIKSSMKGQNFISFCLLDIDIHKNVPHVHLHEKRENKDRWHGAELQVIIEGNWTTHRSKILHYMRQMAVITPYAQFLFRFLSDSPDKNLTIQFARRTDVMPPIPLQTKHHPSAVDLLLIKRLISETTKQNLLQFLQHEFVNISKSHAERLIGEMGPDFSAKTTVKSLTSQQLVRIHQLFRQAKFDDPSGNCLSPAGEYNLRLGIIKELHPDLVATHASSPQVFEGHPFIVEAGISIGGKDVKHGLNIFRYANRIPLLFEQGADVITRTALKRINWSSYKINQQQDKIGVFVSIVSTKIPFKGTGKEYIGDDITEIASAVQSALKQCCLQLKSKIVKKLQARERQDRKRNLNRYIPDVARAIMETLGEIADESPPKRPRYDKEDEELLEKVNSEEVTEMTFRDCLTQHVEQVDYEMALEYAMQSGVSEEPREALYLNSLEGSYKFIDFQSPVFVFRFIP
With B1, the binding result in assay [1] is listed as “binds”.

B2: OsSpo11-4 (yeast two-hybrid fusion) (protein, UniProt Q2QM00 1-487)
chain: MDDSTDDDSYHPRKHYAYDRQVSSSRWRTSREYIRGPGPETHTTESAQDGQDPPAGVYSYGYFSGSGNDPQVQGHFVPEIQKYNPYVIFKGEQLPVPIWELPEEKVQDFHDRYFIAKDKSRVEARKTLNRLLEGNINTIERGHGYKFNIPKYTDNMEFNEEVKVSLAKAGKTISRSFCNANQREVASRTGYTIDLIERTLGAGLNISKRTVLYTNKDLFGDQSKSDQAINDICALTNIRRGSLGIIAAEKGIVVGNIFLELTNGKSISCSIGVQIPHRLDQIKDVCVEIGSRNIEYILVVEKHTMLNYLLEMDYHTNNNCIILTGCGMPTLQTRDFLRFLKQRTGLPVFGLCDPDPEGISILATYARGSCNSAYDNFNISVPSICWVGLSSSDMIKLNLSETNYSRLSREDKTMLKNLWQDDLSDVWKRRIEEMISFDKKASFEAIHSLGFDYFATNLLPDMINKVREGYVQVQEKKEPQDTEASED
With B2, the binding result in assay [2] and in assay [1] was “binds” in each case.

B3: OsSpo11-4 from rice flowers at the male meiosis stage (protein, UniProt Q2QM00 1-487)
chain: MDDSTDDDSYHPRKHYAYDRQVSSSRWRTSREYIRGPGPETHTTESAQDGQDPPAGVYSYGYFSGSGNDPQVQGHFVPEIQKYNPYVIFKGEQLPVPIWELPEEKVQDFHDRYFIAKDKSRVEARKTLNRLLEGNINTIERGHGYKFNIPKYTDNMEFNEEVKVSLAKAGKTISRSFCNANQREVASRTGYTIDLIERTLGAGLNISKRTVLYTNKDLFGDQSKSDQAINDICALTNIRRGSLGIIAAEKGIVVGNIFLELTNGKSISCSIGVQIPHRLDQIKDVCVEIGSRNIEYILVVEKHTMLNYLLEMDYHTNNNCIILTGCGMPTLQTRDFLRFLKQRTGLPVFGLCDPDPEGISILATYARGSCNSAYDNFNISVPSICWVGLSSSDMIKLNLSETNYSRLSREDKTMLKNLWQDDLSDVWKRRIEEMISFDKKASFEAIHSLGFDYFATNLLPDMINKVREGYVQVQEKKEPQDTEASED
B3: the binding entry in assay [3] is on record as “binds”.

B4: OsSpo11-1 (yeast two-hybrid fusion) (protein, UniProt Q7Y021 1-381)
chain: MAGREKRRRVAALDGEERRRRQEEAATLLHRIRGLVRWVVAEVAAGRSPTVALHRYQNYCSSASAAAASPCACSYDVPVGTDVLSLLHRGSHASRLNVLLRVLLVVQQLLQQNKHCSKRDIYYMYPSIFQEQAVVDRAINDICVLFKCSRHNLNVVPVAKGLVMGWIRFLEGEKEVYCVTNVNAAFSIPVSIEAIKDVVSVADYILIVEKETVFQRLANDKFCERNRCIVITGRGYPDIPTRRFLRYLVEQLHLPVYCLVDADPYGFDILATYKFGSLQLAYDANFLRVPDIRWLGVFTSDFEDYRLPDCCLLHLSSEDRRKAEGILSRCYLHREAPQWRLELEAMLQKGVKFEIEALSACSISFLSEEYIPKKIKQGRHI
Take B4: the binding result in assay [4] and in assay [1] was “no binding” in each case.
